Data published in the RNAGym collection of RNA variant scans (doi:10.7554/elife.90254).
The source gives no read counts; variants with many changes may rest on few reads.

B1: LINE1-mini (parent)
chain: GGCAGAGCUCAACACAGCGUGGCAAAGUGGCUGUGGCUAGACUGCC

Variants of: B1
Test: self-cleavage, relative activity (ratio to wild type); higher = more cleavage; in vitro, sequencing; the parent is a self-cleaving ribozyme

Row | Variant | self-cleavage
1 | GGCAGAGCUCAACACAACGUGGCAAAGUGGUUGCGGCUAGACUGCC | 0.07
2 | GACAGAGCUCAACAAAGCGUGGCAAAGGGGCUGUGGCUAGACUGCC | 0.12
3 | GGCAGAGCUCUACACAGGGUGGUAAAGUAGCUGUGGCUCGACUGCC | 0.05
4 | GGCAGAACUCAACACAGCGUGGUAGAGUGGCUGUGGCUAGACUGCC | 0.13
5 | GGCAGAGUUCAACACAGCGUGGCAAAGUGGCUAGGGCUCGACUACC | 0.01
6 | GGCAGAGCUCAACACAGCGCGGCAAAGUGGCCGUGGGUAGACUGCC | 0.03
7 | GGCAGAGCUCAACACAGCGUGGCUAACUGGCUUUGGCUAGACUGCC | 0.08
8 | GGCAGCGCUCAACACACCGUGGCUAAGUGGCUGUGGCUAGACUGCC | 0.3
9 | GGCAGAGAUCAACACAGCGUGGCAAACGAGCUGUGCCUAGACUGCU | 0.23
10 | GGCAGAGCUCAACACAGCGUGGCAAAGCGGCUGUGCCUAGACAGCC | 0.11
11 | GGCAGAACUCAACAUAGCGUGGCAAAGUGGCUGUGUCUAGACUGCC | 0.1
12 | GGCAGAUCUCAACACAGUGUGGCAAAGUGUCUGUGGCUAGACUGCC | 0.06
13 | GGUAGAGCUCAAUAUAGCGUGCCAAUGUGGCUGUGGCUAGACUGCC | 0.47
14 | GGCAUAUGUCAACACAGCGUGGCAAAGUGGCUGUGGCUAGACUACC | 0.1
15 | GGCAGAACUCAUCACAGCGUGGCAAAGUGGCUGUGGCUAGGCUGCC | 0.03
16 | GUCAGAGCUCAACAUAGCGUGGCAAAGUGGCUGGGGCUAGACUGCC | 0.05
17 | AGCAGAGCUCAACACAGCGUGCCAAAGUGGCUCUGGCUAGACUGCC | 0.03
18 | GGCAUAGCUCAAAAAAGUGUGGCAAAGUGGCUGUGGUUAGAUUGCC | 0.02
19 | GGCAGAGAUCAACACCGCGCCGCAGAGUGGCUGUGCCUCGACUGCC | 0.04
20 | GGCAGAGUUCAACCCAGCGUGGCAAAGUGUCUGUGGCUAGACUGCC | 0.15
21 | GGCAGAGCUCAACAGAGCGUGGUAAAGUGGCUGUUGCUAGACUGAC | 0.01
22 | GCCAGAGCUCAACACAGCGUGGCAAAGUGGCUGUCGCUAGAUUGCC | 0
23 | GGCAGAGCUAAACACAGCGUGGCAAAGUGUCUGUAGCUAGACCGCC | 0.03

Row | Variant | self-cleavage
24 | GGCACAGCUCAACCCAGCGUGGCAAAGUGGCUGUGCCUAGACUGCC | 0.06
25 | GGCAGAGCUAAACACAGCGUGGCAUAUUGGCUGUGGCUAGACUGCC | 0.09
26 | UGCAGAGCUCAACAAAGAGUGGAAAAGUGGCUGUGGCUAGACUGCC | 0.03
27 | AGCAGAGCUCAACACAGCGUGGCCAAGUGGCUGUGGCGAGACUGCC | 0.08
28 | GGCAGAGCUAAACACAGCGUGGCAAAGUGGCAGGGGCUAGACUGCC | 0.01
29 | GGCAGUGCUCAACACAGCGUGGCAAAGUGGCUGUGGCUAGACUUUC | 0.1
30 | GGCAUGGCUCUCCACAGCGUGGCAAAGUGGCUGUGGCUAGACGGCC | 0
31 | GGCAGAGCUCAACACAGCGUGGUAAAGUGGCUGCGGCUAGACUGCA | 0.32
32 | GGCCGAGCACAACACAGCGAGGCAAAGUGGCUGUUGCUAGACUGCC | 0.25
33 | CUCAGAGCCCAACACAGCGUGGCAAAGUGGCUGUGGCGAGACUGCC | 0.05
34 | GGAAGAGCUCGACACAGCUUGGCAAAGGGGCUGUGGCUAGACUGCC | 0.03
35 | GGCAGUGCCCAACACAGCGUUGCAAAGUGGCUGUGGCUAGACUGCC | 0.04
36 | GGCAGAGCUUAACACAGCGUGGCAAAGUGAAUGUGGCUAGACUGCC | 0.18
37 | GGCAGAGCUCAACACAGCGUGGCACAGUGGCUGUGGCUAGACUAAC | 0.11
38 | GGCAUAGGUCAACACAGCGUGGAAAAGUGGCCGUGGUUAGACUUCC | 0.01
39 | GGCAGAGCUCAACACAGCGUGGCAAAGUUGGUUUGGCUAGACUGCC | 0.01
40 | GGCAGAGCUAAAUACAGCGUGGCAAAGUGGCUGUGGCUCGACUGCC | 0.06
41 | GGCGGAGCUCAACAUAGCGUGUCCAAGUGGCUGUGGCUAGACUGCC | 0.08
42 | GGAAGAGCUCAACACAGCGUGGCAAAGUGUCUGUGGCUAGACUGUC | 0.29
43 | GGAAGAGCUCAACACAGCGUGGGAAAGUGGCUGUAGCUAGACUGCC | 0.1
44 | GGCAGAGCUCGACACAGCGUGGCAAAGUGGCUGUUACUAGACUGUC | 0.03
45 | GGCAGAGCUCAACACAGCGUGUCAAAGUCACUGUGGCUAGACUGCC | 0.68
46 | GGCAGAGCUCAACACGGCGUGGCAAAGGGACUGUGGCUAGACUACC | 0.01

Row | Variant | self-cleavage
47 | GGCAGAGUCCACCACAGCGUGGAAAAGUGGCUGUGGCUAGACUGCC | 0.01
48 | GGCAGAGCUCAACACAACGUGCCAAUGCGGCUGUGGCUAGACUGCC | 1.27
49 | GGCAGAGAACAACACAGCGUGGCAAUGCGGCUGUGACUGGACUGCC | 0.09
50 | GUCACAGCUCAACACAGCGUGGCCAAGUGGCUGAGGCUGGACUGCC | 0.02
51 | GGAAUAGCUCAACAAAGCGUGGCAAAGUUGCUGUGGCUUGACUGCC | 1.02
52 | GGCAGAGCUCAACACAGUGUUGCAAAGUGGCUGUGUCUAGACUGCC | 0.03
53 | GGCUCAGCUCAACACAGCGUGGCAAAGUGGCUGUGGUUAGACUGCC | 0.02
54 | CGGAGAGCUCAACAAAGCGUGGCAUAGUGGCUGUGGCUAGACUGGC | 0.13
55 | GGCUGAGCUCAACACAGCGUGGCAAAGUGGAUUUGGCUACACUGCC | 0.08
56 | GGGAGAGCUCAAUAUAGCGUGGCAAAGUGGCUGUGGCUAGACUGCC | 0.15
57 | GGCAGAGCUCAUCACAGCGUGGCAAAGUUGCUGUGGCUAGUCUGCC | 0.07
58 | GGCAUAGUUUAACACAGCUUGGCAAAGUGCCUGUGGCUAGACUGCA | 0.04
59 | GGCACAGAUCAACACAGCGUGACAAAGUGGCUGUGGCCAUACUGAC | 0.1
60 | GGCAGAGCUCAACACAGAGUGGCACUGUGGCUGUGGCUAGACUGCC | 0.04
61 | GGCAGAGCUCAACACAGCCUGGCAAAGUGGCUGUGGCGAUAGUGCC | 0.01
62 | GGCAGAGAUCAACACAUCGUGGCAAAGUGGCUGUGGCUAGACUCCC | 0.11
63 | GGCAGAGCUCCACACAGCGGGGCAAUGUGGCUGUGGCUAGACUGCC | 0.02
64 | GGCAGAGGUAAACACAGCGUGGCAAAGUGGCUGUGCCUAGACUGCC | 0.01
65 | GGCAGAUCUCAACACAGCGUGGCCAAGUGGCUGUGGCUACACUGCC | 0.1
66 | GACAGAGCUCAACACAGCGUGGCUAAGUGGAUGUGGCUAGACUACC | 0.26
67 | GGCAGAGCUCAACACAGCGUGGCCAACUGGGUGUGGCUAGACUGCC | 0.05
68 | GGCAGAGCUCAACACAGCCUGGCACAGUGGCUGUGGCUACACUGCC | 0.04
69 | GGCAGAGCUGAACACAGCGUGGCCAAGUGUCGUUGGCUAGACUGCC | 0.01

Row | Variant | self-cleavage
70 | AGCAGAGCUCAACACAGCGUAGCAAAGUGGCUGUGGCUAGAAUGCC | 0.27
71 | GGCAGAGCGCAACACAGCGUAUCAAAGUGGCUGUGGCACGACUGCC | 0.01
72 | GGCAGAGCUCAACAAAGCGUGGCAAAGUGACUGUGGCUAGACUGCA | 0.09
73 | GGCAGAGCUCAACACAUCGUUGCAAAGUUGCUGUGGCUAGAGUGCC | 0.02
74 | GGCAUAGCUCAACACAGCGUUGCAUAGUGGCUGUGGCUAGACUGCC | 0.04
75 | GGCAGAGCGCAAUACAGCGUGGCAAAGUGGCUGUGGCUAGACUGAC | 0.01
76 | GGCAGCGCUCAACACAGCGUGGCAAAGUGUCUGUGGCUAGACUGAC | 0.21
77 | CGCAGAGCUCAACAAACCGUGGCAAAGUGCCUGUGACUAGACUGCC | 0
78 | GGCAGAGCUCAACACAGCAUGGCAAAGUGGUUGUGGCUCGACUGCC | 0.08
79 | GGCAGAGCUCAACACGGCGCGGCAAAGUGGCUGUGGCUGGACUGCC | 0.02
80 | GCCAGAGCUUAACACAGCCUGGCAAAGUUGUUGUGGCUAUACUGUC | 0
81 | GUCAGAGCUCAACACAGCGUCGCAAAGUGGCUGUGGCUAAACUGCC | 0.04
82 | UGCUGAGUUCAACACAGCGUGACAAAGUGGCUGUGGCUAGACUGCC | 0.08
83 | GGCAGAACUCAACACAGCUUGACAAAGUGGCUAUGGCUAGGCUGAC | 0.22
84 | GGCAGAGCUGAACACGGCGUGGCAAAGUGGAUGUGGCUAGACUUCC | 0.01
85 | GGCAGAGCUCAAUACAGCCUGGCAAAGAGGCUGUGGCUAGACUGCC | 0.07
86 | GGCUCAGCUCCGCACAGCGUGGCAAAGUGGCUAUGGCUAGACUGCC | 0.03
87 | GGCAGAGCUCAACACACGGUGGCAAAGUGGCUCUGGUUAGACUGCC | 0.01
88 | GGCAGAGCUAACCACAGCGUGGCAAAGUGGCUGUGGCUAGACUGAC | 0.01
89 | GGUAGAGCUCAACACAGCGUGGCAAAUUGGCUGUGGCCAGACUGCC | 0.12
90 | AGCAGAGCGCAACACAGAGUGGCAAACUGGCUGUGGCUAGACUGCC | 0.56
91 | GGCAGAGCUAAACACAGCGUGGCAAAGUGGCUGUGGCUAGACGGAC | 0.07
92 | AGCACAUCUCAACACAGCGUGGCAAAGUGGCUGAGGCUAGACUGCC | 0.59

Row | Variant | self-cleavage
93 | GGUAGAGCUCAACACAACGAGGCAAAGUGGCUGUGGCUAGACUGCC | 0.33
94 | GGCAGAGCUCAUUACAGCGUGGCAAAGUUCCUGUGGCUAGACUGCC | 0.01
95 | GGGAGAGCACAACACAGCGUGGCAAAGUGGCUGUCGCUAGAAUGUG | 0.06
96 | GGCAGAGCUCAACACAGCGUGACAGAGUGGUUGUGGCUAGACUGCC | 0.25
97 | GGCAGAGUUCUACACAGCAUGGCAAAGUGGCUGUGGCAAGGUUGAC | 0.01
98 | GGGAGAGCUCAACACAGCCUGGCAAAGUGGCUGUGGGUAGACUGCC | 0.02
99 | GGCAGAGCUCAACACAGCGUGGCGAAGUGGCUGUGGCUAGACAACC | 0.05
100 | GGCAGAGCCCAAAUCAGCGUGGCAAAGUAGCAGUGGCAAGACUGCC | 0.02
101 | GGCAGAGCUCAACACACCGUGGCAAAGUGGCUGUGGUGAGACUGCC | 0.01
102 | GGCAGAUCUCUACACAGCGUCGCAAAGUGGCUGUGGCUAGACUGCC | 0.04
103 | GGCAGAGAUCAAUACAGCGUGGCCAAGUGGCUGUGGCUAGACUGCC | 0.24
104 | AGCAGGGCUCAACCGAGCGCGGCAAAGUGGUUGUGGCUAGACUGCC | 0.01
105 | GGCAGAGCUCAACAUAGCGUGGCAAAUUGGCUGUGGCUAGUCUGCC | 0.08
106 | GGCAGAUCUUAACACCGCGUGGCAAAGGGGCUGUGGCUAGACUGCA | 0.07
107 | GGCAGAGCUCAACACAGCGUGAUAAAGUGGCUGUGCCUAGACUGCC | 0.03
108 | GACAGAGCUCAACACAGCGUGGCAAAAUGGUUGUGGCUAUACUGCC | 0.03
109 | GGCAGAGCUCAACACAGCGUGGCAAACUGGCUGAGGCUAGUCUGCC | 0.06
110 | GGCAGAGCUCAACACUGCGUGGCUAAGUGGCUGUGCCUAGACUGAC | 0.02
111 | GGCAGAGCUCAACACAGCGUGGCAAAGUGGCUGCGGCCAGACUGCG | 0.03
112 | CGCAGACCUCAACACAGUGUGGCAAAGUGGCUGUGGCUAGACUGCC | 0.03
